Results reported in PubChem BioAssay AID1671194 (National Center for Advancing Translational Sciences (NCATS), 2021).
Out of some 140,000 compounds screened, about 240 (0.17%) were called active. The shares of active, inactive and inconclusive entries below differ from those in the screen. Calls come from the whole dose curve; as a rule, active = well fitted inhibition curve with a large enough effect; inconclusive = small, poorly fitted or top-dose-only effect; inactive = no such curve, though single readings can be large or run the other way. A potency beside an inconclusive call is a rough fit, not a confirmed value.

Experiment: Primary qHTS assay for inhibitors of alpha-synuclein gene (SNCA) expression; note: nearly all actives have a fitted effect of over 45% in size;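 for activity change, negative = inhibition: plate controls were DMSO cells for no effect and cell-free wells for full effect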
Conditions: HEK-293 SNCA-luciferase knock-in, luminescence, 24 h; activity change, negative = inhibition: at 57.2 µM (top of the series) unless noted
Potency is the fitted concentration of half-maximal effect; tags give direction and shape of the fitted curve.

Row | SMILES | Potency | activity change, negative = inhibition
1 | CC(=O)c1c(C)n(-c2ccc(C)cc2)c2ccc(OC(=O)COc3ccccc3)cc12 | inconclusive: 1.41 µM [inhibitor, single point] | 
2 | CS(=O)(=O)N1CCC(N2C(=O)C3(CCCCC3)C2c2ccccc2)CC1 (centres undefined) | inconclusive: 39.8 µM [inhibitor, single point] | 
3 | c1cc(-c2n[nH]c(CNC3CCC4(CCNCC4)CC3)n2)ccn1 |  | inactive: -13.2%
4 | CCCc1nnc(C[C@@H]2C[C@@H](C(C)C)[C@H](CN3CCC(CO)CC3)C=C2C)o1 |  | inactive: -26.5% [at 87.6 µM]
5 | Cc1ccc2nc([C@H]3CCN(C4CCC4)C3)[nH]c2c1 | inconclusive: 79.4 µM [inhibitor, single point] | 
6 | COCCN1CCC(N2CCN(C(=O)c3ccc(Cl)s3)CC2)C1=O (centres undefined) | inconclusive: 39.8 µM [inhibitor, partial curve, poor fit] | 
7 | COc1cccc(NC(=O)Cn2c(=O)n(CCc3cccc(C)c3)c(=O)c3ccccc32)c1 | inconclusive: 15.8 µM [inhibitor, partial curve, poor fit] | 
8 | Cc1c2cnn(-c3ccccc3)c(=O)c2c(C)n1C(C)C(=O)NCc1cccc(Br)c1 (centres undefined) | inconclusive: 20 µM [inhibitor, single point] | 
9 | COc1ccc(-n2nc(-c3ccc(C)cc3)c3cnc4cc(F)c(F)cc4c32)cc1 | inconclusive: 3.16 µM [inhibitor, partial curve, poor fit] | 
10 | CN1Cc2ccc(NCc3ccccc3)nc2C(C)(C(=O)NCc2ccc3c(c2)OCO3)C1 (centres undefined) | inconclusive: 39.8 µM [inhibitor, single point] | 
11 | COc1ccc(-c2noc(-c3cccn3CC(=O)Nc3ccccc3F)n2)cc1F |  | inactive: 41.2%
12 | Cc1ccc(C2NC(=O)N(CC(=O)NC3CCCC3)C3=C2C(=O)OC3)cc1 (centres undefined) |  | inactive: -6.82%
13 | Cc1nc(N2CCCCC2)ncc1C(=O)N[C@H]1[C@H]2CCO[C@H]2[C@@H]1N(C)C |  | inactive: -28.5%
14 | CCc1cccc(NC(=O)Cn2c(N3CCc4ccccc4C3)nc(C)cc2=O)c1 |  | inactive: -14.3%
15 | Cc1cc(C)cc(NC(=O)N2c3ccccc3CC2c2noc(C3CCOCC3)n2)c1 (centres undefined) |  | inactive: 155%
16 | CC(C)Cc1cnc(-c2ccccc2)[nH]1 |  | inactive: 96.9% [at 87.6 µM]
17 | Cc1cccc(NC(=O)Nc2nnc(N3CCCC3)s2)c1 |  | inactive: 58.2%
18 | COCc1nncn1C1CCN(C(=O)c2cc(F)cc(F)c2)CC1 |  | inactive: -29.6%
19 | CCc1nc2c(c(-c3ccc(Cl)cc3)n1)CN(Cc1ccc(C(F)(F)F)cc1)CC2 | inconclusive: 17.8 µM [inhibitor, partial curve, poor fit] | 
20 | Cc1nc(-c2cccc(F)c2)sc1CCNC(=O)C(=O)Nc1ccc2c(c1)OCCO2 |  | inactive: 2.22%
21 | Fc1cccc(-c2cc(-c3cn[nH]c3)c3cncn3c2)c1 | inconclusive: 1 µM [inhibitor, full curve, poor fit] | 
22 | O=C(NCCS(=O)(=O)N1CCN(c2ccccc2F)CC1)C1CC(=O)N(c2ccc(F)cc2)C1 (centres undefined) | inconclusive: 7.08 µM [inhibitor, single point] | 
23 | CCn1cc(CN2CCC(N3C(=O)C4(CCCCC4)C3c3ccncc3)CC2)c(C)n1 (centres undefined) | inconclusive: 39.8 µM [inhibitor, single point] | 

Row | SMILES | Potency | activity change, negative = inhibition
24 | Cc1cccc(S(=O)(=O)N2CCCC(Cn3c(C4CC4)nc4cccnc43)C2)c1 (centres undefined) |  | inactive: 6.31%
25 | COc1ccc(NC(=O)c2ccc3c(c2)NC(C)(COc2ccccc2)CO3)cn1 (centres undefined) | inconclusive: 14.1 µM [inhibitor, partial curve, poor fit] | 
26 | COCCCN(CCC(=O)NCCc1ccccc1)C(=O)c1cc(C)oc1C |  | inactive: 19.9%
27 | CCOc1ccc(OCC)c(NC(=O)C2CCCN(S(=O)(=O)c3ccc(C)cc3)C2)c1 (centres undefined) | inconclusive: 4.47 µM [inhibitor, partial curve, poor fit] | 
28 | O=C(OCc1ccccc1)N1CCOCC12CCN(Cc1cccs1)CC2 | inconclusive: 25.1 µM [inhibitor, partial curve, poor fit] | 
29 | CN(C)C(=O)CNC(=O)c1cccc(-c2ccsc2)c1 |  | inactive: 32.8% [at 87.6 µM]
30 | COc1cccc(C(=O)N2CCC3(CC2)N=C(c2ccc(Br)cc2)NO3)c1 | inconclusive: 39.8 µM [inhibitor, single point] | 
31 | COc1ccc(-c2nnc3n2CCN(C(=O)C2CC2)C3)cc1 |  | inactive: 11.7% [at 87.6 µM]
32 | CCN(CC)C(=O)N1CCCCCCNC(=O)[C@@H]2C[C@@H](c3nc(-c4cccnc4)no3)C[C@@H]21 | inconclusive: 2.82 µM [inhibitor, single point] | 
33 | O=C1Nc2ccc(-c3ccc4c(c3)OCO4)cc2C(=O)N2CCN(C(=O)C3CCCC3)C[C@@H]12 |  | inactive: -12.9%
34 | Cc1cn2c(=O)c(S(=O)(=O)NCc3ccc(F)cc3)c(C)nc2s1 | inconclusive: 7.08 µM [inhibitor, single point] | 
35 | CCN(CC)C(=O)C1CCCN(c2ncnc3c2c(-c2ccccc2)cn3-c2cccc(C)c2)C1 (centres undefined) | inconclusive: 39.8 µM [inhibitor, single point] | 
36 | Cn1nc(C2CCCC2)cc1NC(=O)c1ccc(F)cc1 | inconclusive: 20 µM [inhibitor, partial curve, poor fit] | 
37 | O=C(NC1CC1)c1cc(C2CC2)nc2onc(C3CCCNC3)c12 (centres undefined) |  | inactive: 16.9%
38 | CCN(CC)C(=O)C1N(C(C)C)C(=O)C12CCCC2 (centres undefined) | inconclusive: 0.708 µM [inhibitor, single point] | 
39 | COc1ccc(-c2cn3nc(SCC(=O)Nc4cc(C)cc(C)c4)ccc3n2)cc1 |  | inactive: 161%
40 | COc1ccc(NC(=O)N2CCc3c(C(=O)Nc4ccc5c(c4)OCO5)cccc32)cc1 | active: 7.94 µM | 
41 | CC1CCCN(C(=O)CN2C(=O)NC3(CCCCC3)C2=O)C1 (centres undefined) |  | inactive: 9.06%
42 | CC(C)Cn1c(=O)c(C(=O)N2CCC(c3ccccc3)CC2)nc2cccnc21 |  | inactive: 16.5%
43 | Cc1nc2ccc(C(=O)N3C[C@@H]4CCN(C)C[C@]4(C(=O)O)C3)cc2s1 | inconclusive: 39.8 µM [inhibitor, single point] | 
44 | COc1ccc(S(=O)(=O)N(CCc2ccccc2)CC(=O)Nc2cc(C)cc(C)c2)cc1OC | inconclusive: 12.6 µM [inhibitor, single point] | 
45 | Cc1noc2c(-c3cccnc3NCCN3CCOCC3)cc(-c3ccccc3)nc12 | inconclusive: 2.51 µM [inhibitor, partial curve, poor fit] | 
46 | CC(C)NC(=O)c1nc2sccn2c1-c1ccccc1 |  | inactive: 13.9% [at 87.6 µM]

Row | SMILES | Potency | activity change, negative = inhibition
47 | O=C(NCc1ccccc1)C1=NO[C@@H]2CN(Cc3ccc(O)c(Cl)c3)C[C@H]12 |  | inactive: 5.5% [at 87.6 µM]
48 | CC(C)(C)c1coc([C@@H]2COCCN2C2CCCCC2)n1 |  | inactive: -5.93% [at 87.6 µM]
49 | CCC(C)n1c(SCc2c(F)cccc2Cl)nc2ccsc2c1=O (centres undefined) | inconclusive: 3.55 µM [inhibitor, full curve, poor fit] | 
50 | Fc1cnc(N2CCCC(OCc3cccnc3)C2)nc1N1CCOCC1 (centres undefined) |  | inactive: -12.1%
51 | Cc1ccc(NC(=O)CCNc2cnc3cnccn23)cc1F |  | inactive: -28.7%
52 | O=C(NC1CC1)c1nc(-c2cccc(C(F)(F)F)c2)c2cnccn12 |  | inactive: 3.17%
53 | COc1cc(C2CC(=O)N(Cc3ccc(F)cc3)c3ccccc3S2)cc(OC)c1OC (centres undefined) | inconclusive: 25.1 µM [inhibitor, single point] | 
54 | CCCCc1nc2ccccc2n2c(-c3ccc(OC)cc3)c3c(=O)n(C)c(=O)n(C)c3c12 | inconclusive: 0.178 µM [inhibitor, partial curve, poor fit] | 
55 | CC(C)c1ccc(NC(=O)C2CCN(c3nc(-c4ccc(C(C)C)cc4)no3)CC2)cc1 | inconclusive: 0.891 µM [inhibitor, full curve, poor fit] | 
56 | Cc1nc2sccn2c(=O)c1CCN1CCC(=C(c2ccc(F)cc2)c2ccc(F)cc2)CC1 | inconclusive: 39.8 µM [inhibitor, single point] | 
57 | O=C(c1cccs1)N1CCc2[nH]nc(-c3cccc(F)c3)c2C1 | inconclusive: 35.5 µM [inhibitor, single point] | 
58 | Nc1cc(=O)nc(SCC(=O)Nc2ccc(F)cc2)n1-c1ccccc1Cl | inconclusive: 1.26 µM [inhibitor, partial curve, poor fit] | 
59 | CCN1c2cc(C(=O)NCc3ccc(OC)c(OC)c3)ccc2C(=O)N2CCCCCC21 (centres undefined) |  | inactive: 0.761%
60 | COCc1nc(C2CCCN(C(=O)c3cccc(OC)c3OC)C2)no1 (centres undefined) | inconclusive: 20 µM [inhibitor, single point] | 
61 | CCc1ccc(CNC(=O)CN(c2ccc(C)cc2)S(=O)(=O)N(C)C)cc1 | inconclusive: 39.8 µM [inhibitor, single point] | 
62 | C=C1C(=O)[C@@]23C(CC[C@@H]1[C@H]2O)[C@@]12CO[C@]3(O)[C@@H](O)[C@@H]1C(C)(C)CC[C@@H]2O (some centres undefined) | active: 34.1 µM | 
63 | CCOC(=O)c1ccccc1NC(=O)c1c(-c2ccccc2)noc1C | inconclusive: 20 µM [inhibitor, partial curve, poor fit] | 
64 | O=C(c1ccccc1)N1CCC(C(=O)N2CCC(N3Cc4ccccc4C3=O)CC2)CC1 | inactive | 
65 | CN1CCN(Cc2nc(C3(O)CCN(C(=O)N4CCOCC4)CC3)cs2)CC1 | inconclusive: 31.6 µM [inhibitor, single point] | 
66 | O=C(c1ccccn1)N1CCC(Cc2nc(C3CC3)n[nH]2)C1 (centres undefined) | inconclusive: 39.8 µM [inhibitor, single point] | 
67 | Cn1c(=O)cc(C(=O)NC2CCCc3c2[nH]c2c(Cl)cccc32)c2ccccc21 (centres undefined) | inconclusive: 17.8 µM [inhibitor, single point] | 
68 | COc1ncc(-c2cc3c(nc2OC)nc(CCc2ccccc2)n3C)cn1 | inconclusive: 31.6 µM [inhibitor, single point] | 
69 | COC(=O)CNC(c1ccccc1)c1cc(Br)ccc1NC(=O)c1ccc(Cl)cc1 (centres undefined) | inconclusive: 7.08 µM [inhibitor, single point] | 
